The text below walks through data of article PMC6451091.

The list shows a part of the results. For part of these data: At the low end of the ranking, values are background and their order means little. For part of these data: Measured with an extract: partners may take part in the binding.

Holding throughout (conditions): 20 mM HEPES pH 7.9, 100 mM NaCl, 1 mM DTT, 0.2 mg/mL BSA, 0.02% Triton X-100, 2% milk, 0.4 mg/mL salmon testes DNA; 1 h; temperature not stated; high values mean tight binding; double strand, one strand shown; sequences stand for … in GCCTAGCAC…GTGCTAGGTCTTGATTCGCTTGACGCTGCTG
The target of one experiment is PU.1 (IVT) (UniProt P17947). Briefly: protein-binding microarray (PBM).
The target of experiment [1] is PU.1 (endogenous, THP-1 nuclear extract) (UniProt P17947). As to the kind of experiment: nuclear extract protein-binding microarray (nextPBM).
The target of experiment [2] is T1, FLI1 (endogenous, THP-1 nuclear extract) (UniProt Q01543).
T1 sequence: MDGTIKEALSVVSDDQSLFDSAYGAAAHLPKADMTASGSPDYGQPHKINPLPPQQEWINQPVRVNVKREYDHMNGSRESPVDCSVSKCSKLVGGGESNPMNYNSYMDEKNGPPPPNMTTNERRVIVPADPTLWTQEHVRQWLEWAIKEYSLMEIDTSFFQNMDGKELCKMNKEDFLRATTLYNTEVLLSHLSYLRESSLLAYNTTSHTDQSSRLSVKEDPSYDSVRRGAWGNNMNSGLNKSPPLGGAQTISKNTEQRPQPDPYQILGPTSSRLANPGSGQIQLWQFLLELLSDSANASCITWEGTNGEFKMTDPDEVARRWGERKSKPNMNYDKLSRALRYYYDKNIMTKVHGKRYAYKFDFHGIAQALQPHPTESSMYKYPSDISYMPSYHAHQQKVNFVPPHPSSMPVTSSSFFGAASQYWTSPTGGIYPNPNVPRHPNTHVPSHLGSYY
The experiment is described as above.

Consider GCAAAGGGGAAGTGGTTAAA, for which the results for the binding signal (in the experiment with PU.1 (IVT); in experiment [1]; in experiment [2]) were 6.15 z-score, 6.55 z-score and 2.93 z-score, respectively.
For the sequence GCAAACAGGAAGTAGAGGAC, the results for the binding signal (in the experiment with PU.1 (IVT); in experiment [1]; in experiment [2]) were 5.63 z-score, 6.18 z-score and 4.99 z-score, respectively.
CGAAAGGGGAAGTGCTGAAC: the results for the binding signal (in the experiment with PU.1 (IVT); in experiment [1]; in experiment [2]) were 7.16 z-score, 7.11 z-score and 3.17 z-score, respectively.
AAAAAGGGGAAGAGCATTGC: the binding signal with PU.1 (IVT) amounted to 5.21 z-score; in experiment [1], 5.99 z-score; in experiment [2] it was 1.51 z-score.
In the same order, the values of AGAAAGAGGAAGTGTTTATA are 8.43 z-score, 7.67 z-score and 4.1 z-score.
Take GAATTGAGGAAGTGCAGAAG: the values for the binding signal (with PU.1 (IVT); in experiment [1]; in experiment [2]) were 6.21 z-score, 6.66 z-score and 3.54 z-score, respectively.
For AAAAAGAGGAACTCAATAAA, the values for the binding signal (with PU.1 (IVT); in experiment [1]; in experiment [2]) were 7.24 z-score, 6.93 z-score and 2.52 z-score, respectively.
In the same order, the values of TTACTGAGGAAGTGGAAACC are 3.27 z-score, 3.01 z-score and 2.29 z-score.
The like results for CTCTAGAGGAAGTGCAACCC were, in that order, 3.29 z-score, 3.39 z-score and 2.64 z-score.
In the same order, the values of GGGAACGGGAAGTGAGTGTT are 4.71 z-score, 4.95 z-score and 2.8 z-score.
For AGGAAGAGGAAGTGAACTAT, the binding signal with PU.1 (IVT) stood at 6.7 z-score; in experiment [1], 6.8 z-score; in experiment [2], 3.99 z-score.
In the same order, the values of AATAAAAGGAAGTCAGTTCT are 4.55 z-score, 3.63 z-score and 2.37 z-score.
On to CTAAACAGGAAGTGAGGATG, for which the values for the binding signal (in the experiment with PU.1 (IVT); in experiment [1]; in experiment [2]) were 5.58 z-score, 6.3 z-score and 5.72 z-score, respectively.
The like results for AAAAAGAGGAAGAGAAATAG were, in that order, 6.3 z-score, 6.4 z-score and 2.23 z-score.
Take AAAAGCAGGAAGTGCCACGT: the figures for the binding signal (with PU.1 (IVT); in experiment [1]; in experiment [2]) were 4.73 z-score, 5.82 z-score and 3.88 z-score, respectively.
The like results for AGAAGAAGGAAGTACTGTGA were, in that order, 4.7 z-score, 4.77 z-score and 2.04 z-score.
The like results for AGGGAGAGGAAGTGAGTCGT were, in that order, 4.06 z-score, 4.04 z-score and 2.89 z-score.
As for ACAAAGAGGAACTAGGGGAG, the values for the binding signal (with PU.1 (IVT); in experiment [1]; in experiment [2]) were 4.96 z-score, 6.11 z-score and 1.49 z-score, respectively.
With ACAAAAAGGAACTGTGCACC, the binding signal came to 2.1 z-score with PU.1 (IVT), 1.71 z-score in experiment [1] and 1.01 z-score in experiment [2].
In the case of GGAAAGAGGAACTGATATAT, the values for the binding signal (with PU.1 (IVT); in experiment [1]; in experiment [2]) were 6.18 z-score, 6.62 z-score and 2.79 z-score, respectively.
For the sequence CAAAAGAGGAAGTCAAATTG, the binding signal with PU.1 (IVT) was 8.09 z-score; in experiment [1], 7.16 z-score; in experiment [2], 3.85 z-score.
The like results for CAAAAAAGGAAGTGCTACCC were, in that order, 5.46 z-score, 5.91 z-score and 2.78 z-score.
Turning to TCAACATGGAAGTACTGTGC, the binding signal in the experiment with PU.1 (IVT) was found to be 1.95 z-score; in experiment [1], 1.56 z-score; in experiment [2] it was 0.651 z-score.
The like results for TGAAAGGGGAAGTGCAACCA were, in that order, 7.1 z-score, 7.08 z-score and 2.86 z-score.
In the same order, the values of ATTATAAGGAAGTCAAACTG are 4.12 z-score, 3.86 z-score and 1.71 z-score.
For TCTGAGAGGAAGTGAGATAG, the figures for the binding signal (with PU.1 (IVT); in experiment [1]; in experiment [2]) were 4.07 z-score, 3.95 z-score and 2.88 z-score, respectively.
Consider TGAAAGAGGAAGTCTGGGTG, for which the figures for the binding signal (in the experiment with PU.1 (IVT); in experiment [1]; in experiment [2]) were 6.38 z-score, 6.68 z-score and 3.33 z-score, respectively.
In the same order, the values of GAAATGAGGAACAGGATCTG are 4.26 z-score, 4.84 z-score and 1.63 z-score.
In the same order, the values of CTGAAGGGGAAGTGGGCAGA are 4.21 z-score, 4.76 z-score and 2.21 z-score.
AAATTGAGGAAGTCTAGTTC: the binding signal was 6.59 z-score in the experiment with PU.1 (IVT), 6.74 z-score in experiment [1] and 3.06 z-score in experiment [2].
On to AGGAAGGGGAAGTTACGAGT, for which the values for the binding signal (with PU.1 (IVT); in experiment [1]; in experiment [2]) were 6.12 z-score, 6.42 z-score and 3.23 z-score, respectively.
The like results for AAGATGAGGAAGTGCCCTCT were, in that order, 6.02 z-score, 6.62 z-score and 2.75 z-score.
As to GAAATGGGGAAGTGACTAAA, the binding signal was found to be 7.2 z-score with PU.1 (IVT), 7.11 z-score in experiment [1] and 3.17 z-score in experiment [2].
The like results for ATGAGGAGGAAGTGAGGGTC were, in that order, 3.71 z-score, 4.18 z-score and 2.66 z-score.
The like results for GCAAGGAGGAAGTCATCCAT were, in that order, 4.41 z-score, 4.78 z-score and 2.61 z-score.
In the same order, the values of GAAAGGAGGATGTACTGTGA are 1.39 z-score, 1.49 z-score and 1.03 z-score.
Consider TAGGAGAGGAAGTGAAAAAC, for which the binding signal was determined as 4.04 z-score in the experiment with PU.1 (IVT), 4.39 z-score in experiment [1] and 3 z-score in experiment [2].
Turning to GATAAGAGGAATTCCTCTGT, the binding signal with PU.1 (IVT) is 1.24 z-score; in experiment [1] it was 0.778 z-score; in experiment [2] it was 0.479 z-score.
On to CAGGGAAGGAAGTGGTTTGA, for which the figures for the binding signal (with PU.1 (IVT); in experiment [1]; in experiment [2]) were 2.11 z-score, 2.29 z-score and 2.2 z-score, respectively.
For ATTTTGAGGAAGTGTAAAGT, the binding signal is 6.34 z-score in the experiment with PU.1 (IVT), 6.67 z-score in experiment [1] and 2.5 z-score in experiment [2].
With CGAAAGGGTAAGTGCTAAAC, the binding signal with PU.1 (IVT) was determined as 0.518 z-score; in experiment [1], 0.292 z-score; in experiment [2], 0.368 z-score.
For AAAAAGAGGAAGTGAGCTTA, the binding signal worked out at 8.51 z-score with PU.1 (IVT), 7.48 z-score in experiment [1] and 4.25 z-score in experiment [2].
For the sequence TCTCTGAGGAAGTGAGAGAC, the binding signal in the experiment with PU.1 (IVT) is 2.46 z-score; in experiment [1] it was 2.69 z-score; in experiment [2] it was 1.53 z-score.
In the same order, the values of AGTTTAAGGAAGTGAATTTC are 5.94 z-score, 6.17 z-score and 2.9 z-score.
In the same order, the values of CAAATGAGGAACGGATGCGG are 2.7 z-score, 2.61 z-score and 2.53 z-score.
In the same order, the values of GAGGAGAGGAAGTGGGTAAT are 3.75 z-score, 3.91 z-score and 3.1 z-score.
For the sequence AGAATGGGGAAGTCACTAAC, the binding signal with PU.1 (IVT) worked out at 6.3 z-score; in experiment [1], 6.52 z-score; in experiment [2], 2.48 z-score.
In the same order, the values of GATGAAAGGAAGTGAAAATC are 2.24 z-score, 1.71 z-score and 2.37 z-score.
The like results for GAAAACAGGAACTCCCATAG were, in that order, 5.34 z-score, 6.04 z-score and 2.26 z-score.
In the case of TTCATGAGGAAGTGGCTTAG, the binding signal in the experiment with PU.1 (IVT) turned out to be 4.78 z-score; in experiment [1] it was 5.27 z-score; in experiment [2], 2.35 z-score.
